Measured values from PubChem BioAssay AID485367 (National Center for Advancing Translational Sciences (NCATS), 2010).
Hit rate of the full screen: of about 330,000 compounds, about 560 (0.17%) were called active. The inconclusive results got no clear call from the source; some entries with a clear call stand among them for comparison. Calls follow the shape of the dose curve; as a rule, active = well fitted inhibition curve with a large enough effect; inconclusive = small, poorly fitted or top-dose-only effect, or effect the other way; inactive = flat fitted curve, though single readings scatter. No potency is given beside an inconclusive call; the fits are too rough.

biological target: ATP-dependent 6-phosphofructokinase (Trypanosoma brucei brucei) (UniProt O15648); test: qHTS Assay to Find Inhibitors of T. brucei phosphofructokinase; also: nearly all actives have a fitted effect of over 60% in size; conditions: T. brucei PFK, ADP-Glo luminescence; series mostly up to 57.5 µM
Summary of the method: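 ADP-Glo luminescence quantified ADP after 45 min at room temperature, with 1.25 nM T. brucei PFK, 0.1 mM ATP and 0.5 mM fructose-6-phosphate in pH 8.0 TEA buffer. qHTS titrations up to 57 µM; curves classified by quality.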
Potency is read from the fitted curve at half-maximal effect; tags tell the direction and shape of the fitted curve.

Chain of UniProt O15648 (O15648 whole entry, looked up): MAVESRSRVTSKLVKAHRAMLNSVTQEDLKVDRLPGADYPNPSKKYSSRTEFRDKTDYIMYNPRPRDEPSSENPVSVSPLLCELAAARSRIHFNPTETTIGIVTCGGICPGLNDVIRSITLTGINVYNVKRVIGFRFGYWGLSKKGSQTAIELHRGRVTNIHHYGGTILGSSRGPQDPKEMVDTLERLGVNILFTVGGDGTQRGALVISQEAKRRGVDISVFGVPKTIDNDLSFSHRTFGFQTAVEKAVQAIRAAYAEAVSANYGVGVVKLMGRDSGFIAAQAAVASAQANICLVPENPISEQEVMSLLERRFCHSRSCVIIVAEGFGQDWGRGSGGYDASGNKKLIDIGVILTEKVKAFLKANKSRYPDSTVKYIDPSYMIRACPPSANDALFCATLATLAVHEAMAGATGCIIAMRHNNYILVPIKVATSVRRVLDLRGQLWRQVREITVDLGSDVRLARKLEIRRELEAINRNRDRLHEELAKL

Structure (SMILES) | Potency
Cc1cc(S(=O)(=O)N2CCN(CC(=O)NC(C)(C#N)C3CC3)CC2)ccc1Br (configuration not stated) | inconclusive [falling, single point]
CCOC(=O)CN1C(=O)CN(c2ccc(C)cc2)C1=O | inactive
CSC1=NS(=O)(=O)c2c(C)nn(C)c2S1 | inconclusive [falling, single point]
O=C(Cc1ccc(Cl)cc1)NC1CC1 | inconclusive [falling, single point]
Cc1ccc(-c2csc3ncn(-n4c(C)ccc4C)c(=O)c23)o1 | inconclusive [falling, single point]
COc1ccc(/C=N/NC(=O)c2ccc(NC(C)=O)cc2)cc1COc1ccc(F)cc1F | inconclusive [activator, full curve, poor fit]
CC1CCc2c(sc(NC(=O)CCC(=O)O)c2C(=O)NC2CC2)C1 (configuration not stated) | inconclusive [falling, full curve, poor fit]
Cc1ccccc1NC(=S)N(CCc1c(C)[nH]c2ccc(F)cc12)Cc1cccnc1 | inactive
CC1CC(C)CN(C(=O)COC(=O)/C=C/c2ccco2)C1 (configuration not stated) | inconclusive [falling, single point]
O=C(O)c1ccc2nc(-c3cc4cccc(O)c4oc3=O)[nH]c2c1 | inconclusive [falling, full curve, poor fit]
Cc1ccc2nc(SCC(=O)c3c(N)n(C4CC4)c(=O)[nH]c3=O)[nH]c2c1 | inconclusive [activator, single point]
Cc1ccc2nc(Cl)c3nnnn3c2c1 | inactive
O=C(N/N=C/c1ccc([N+](=O)[O-])cc1)c1cccs1 | inconclusive [falling, single point]
O=[N+]([O-])c1ccc(SCCc2ccncc2)cc1 | inconclusive [falling, single point]
Cc1nn(-c2ccccc2)c2c1C(c1cccs1)C(C#N)=C(N)O2 (configuration not stated) | inconclusive [falling, single point]
OC(CN1CCOCC1)C12CC3CC(CC(C3)C1)C2 (configuration not stated) | inconclusive [falling, single point]
COc1cc(C(=O)Nc2sc3c(c2C#N)CCN(C(C)=O)C3)cc(OC)c1OC | inactive
O=C(Nc1cccc(S(=O)(=O)NC2=NCCCCC2)c1)c1cc(-c2ccccc2)nc2ccccc12 | inactive
O=C1C=CC(=O)N1CCNc1ncc(C(F)(F)F)cc1Cl | active: 21.3 µM
COc1cccc(NC(=O)Nc2ccc3c(c2)OCO3)c1 | inactive
COc1ccccc1C(=O)NCC(=O)OCC(=O)Nc1ccc2[nH]c(=O)[nH]c2c1 | active: 26.9 µM
COc1cc(CC(=O)OCC(=O)Nc2sccc2C(N)=O)cc(OC)c1OC | inconclusive [activator, single point]
Cc1cccc(C)c1OCc1cc(C(=O)N2CCCCCCC2)no1 | inactive
CCc1ccc2c(c1)/C(=C/C(=O)c1cccs1)C(=O)N2 | inactive

Structure (SMILES) | Potency
C#CCOCCOCCOCCNc1nc(N2CCN(C(=O)CCCCCCCCCCNC(=O)[C@H]([C@@H](C)CC)n3cc(CCCCN=C(N)N)nn3)CC2)nc(N2CCN(C(=O)CCCCCCCCCCNC(=O)[C@H](CCCN=C(N)N)n3cc(C[C@@H](C)CC)nn3)CC2)n1 | inactive
CCCCc1c(O)nc2sc3cc(OC)ccc3n2c1=O | inactive
NC(=O)C1CCN(C2CC(=O)NC2=O)CC1 (configuration not stated) | inconclusive [falling, partial curve]
O=C(N/N=C/c1cccnc1)c1cccc(NC(=O)c2ccc(Cl)cc2)c1 | inconclusive [activator, single point]
O=C(CN1CCN(c2ccccn2)CC1)Nc1cccc(Br)c1 | inconclusive [activator, single point]
Cn1c(N)c(C(=O)COC(=O)c2ccc(-c3ccccc3)cc2)c(=O)n(C)c1=O | inactive
NS(=O)(=O)c1ccc(NC(=S)NCc2cccc(Cl)c2)cc1 | inconclusive [falling, full curve]
CCOc1cc2c(C#N)c(N3CCNCC3)nc(N)c2c(N)n1 | inconclusive [falling, single point]
Cc1csc(N/N=C/c2ccc(O)c([N+](=O)[O-])c2)n1 | inconclusive [activator, partial curve]
O=C(O)CCCCC1CCSS1 (configuration not stated) | inconclusive [falling, full curve]
Nc1[nH]n(-c2ccccc2)c(=O)c1N=Nc1ccccc1[N+](=O)[O-] | inactive
O=C(CN1CCc2ccccc21)NC(=O)NCc1ccccc1 | inconclusive [falling, single point]
Cn1c(-c2ccc3nc(N)sc3c2)nc2cc(N)ccc21 | inconclusive [falling, single point]
O=C1CC(c2ccc(F)cc2)Cc2nc(N3CCOCC3)ncc21 (configuration not stated) | inactive
COc1cccc(-c2nc(N3CCN(C)CC3)c3ccccc3n2)c1O | inactive
O=C(O)c1c2c(nc3ccc(S(=O)(=O)N4CCC(C(=O)NCc5ccc(Cl)cc5)CC4)cc13)CCCC2 | inconclusive [falling, single point]
O=C(Nc1nc2ccccc2[nH]1)c1ccccc1F | inconclusive [falling, partial curve]
CC(C)C1O/C(=N/C(=O)Nc2ccc(Cl)c(Cl)c2)NC1=O (configuration not stated) | active: 9.53 µM
COC(=O)c1[nH]c2ccc(Cl)cc2c1NC(=O)CN1CCc2cc(OC)c(OC)cc2C1 | inactive
O=C(COC(=O)/C=C/c1ccc(Cl)cc1)NC1CCCC1 | inconclusive [falling, single point]
COc1cc(OC)c(OC)cc1/C=C1\Oc2cc(OCC(=O)N3Cc4ccccc4C[C@H]3C(=O)O)ccc2C1=O | active: 12 µM
COc1ccccc1CNC(=O)/C=C/c1ccc(Br)o1 | inconclusive [activator, single point]
Clc1ccc(CN2C3=NCCN3c3ccccc32)cc1Cl | active: 6.75 µM
